In PMC7819943, “Rice protein-binding microarrays: a tool to detect cis-acting elements near promoter regions in rice” one finds binding signal data, which are given here for 23 sequences.

The list shows a part of the results.

The target in the experiment is T1, OsWOX13 (Oryza sativa, UniProt Q5QMM3 1-267).
T1 sequence: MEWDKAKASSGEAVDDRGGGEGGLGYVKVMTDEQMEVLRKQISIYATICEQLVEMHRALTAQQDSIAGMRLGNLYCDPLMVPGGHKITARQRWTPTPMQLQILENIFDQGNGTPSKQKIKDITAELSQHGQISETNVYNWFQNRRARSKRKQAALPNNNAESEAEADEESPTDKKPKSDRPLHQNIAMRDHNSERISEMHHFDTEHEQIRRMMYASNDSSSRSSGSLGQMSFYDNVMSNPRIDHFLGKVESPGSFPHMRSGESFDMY
Put plainly: protein-binding microarray (RPBM); PBS, 2% BSA, 51.3 ng/ul salmon testes DNA, 50 uM zinc acetate, 200 nM TF, 25 C, 1 h; high values mean tight binding. The note with it: protein: recombinant; tags: N-terminal polyhistidine and DsRed monomer fusion (pET32a); label: CyDye5-dUTP incorporated in the synthesized complementary strand; 3' TTTTT single-stranded linker to array surface; dsDNA, one strand shown. The procedure, abridged:
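Ni–NTA purification followed expression in E. coli BL21-CodonPlus of transcription factors fused N-terminally to a polyhistidine tag and DsRed. At 200 nM in PBS with 2% BSA, salmon testes DNA and 50 µM zinc acetate, the protein was incubated for 1 h at 25 °C with a custom Agilent array that had been primer-extended with Cy5-dUTP and blocked with 2% BSA. After washing, the array was read on an Axon 4000B scanner. The binding signal is per-feature fluorescence intensity in arbitrary units.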
As for “ATAATTGCATCAATCTTGTGTTGAGTTATATGTTCAGTGCCGGAGTCACCTAGTGCAG”, the binding signal was 44500 fluorescence intensity (a.u.).
The figure for “CTTCTCTTTCCGGCTGTAATTGAAATGCAGCAGCTGTAGACGGAGTCACCTAGTGCAG” is 5520 fluorescence intensity (a.u.); for “TATTGATTATTAATAAAAGAGTAAATTTTAGATAACCCCACGGAGTCACCTAGTGCAG” it is 33800 fluorescence intensity (a.u.).
For “CACGGATGAATTGTCAATTTGTCATGCGTCCGACGACGGACGGAGTCACCTAGTGCAG” the value was 19300 fluorescence intensity (a.u.).
For “AGAGCACATACTAATTAATGAAAATCATAAAACAAGGAGCCGGAGTCACCTAGTGCAG” the value was 5260 fluorescence intensity (a.u.); for “AGATTGATTTAGAATTTGATTTTATCAAGTGTTGGATGTCCGGAGTCACCTAGTGCAG”, 46300 fluorescence intensity (a.u.); for “TTATAATCAGTTCTTTACATTGATGAAATAAAGGATTTCCCGGAGTCACCTAGTGCAG”, 4280 fluorescence intensity (a.u.).
Turning to “ACCCCTAATTTAATTCTCAATTAACCAGGTACTGTCCTAACGGAGTCACCTAGTGCAG”, the binding signal was 34100 fluorescence intensity (a.u.).
The figure for “GGGATTATTTAGATTTGTTATATTAGGAAGGATCACAAGTCGGAGTCACCTAGTGCAG” is 12000 fluorescence intensity (a.u.); for “AGCAGATTGACCGATTCACCAGAATTCCTGAATCTCTCAACGGAGTCACCTAGTGCAG” it is 12700 fluorescence intensity (a.u.).
Regarding “TTGACTAACCAGAGGATTGATTCACTCGAGGAGGCGGCGGCGGAGTCACCTAGTGCAG”, the binding signal was 7860 fluorescence intensity (a.u.).
The figure for “ACAAACCCATAATTTGTGAGGAGACAAGAACAATCAATATCGGAGTCACCTAGTGCAG” is 3670 fluorescence intensity (a.u.); for “TATAATTAGGCTGTTCACAATGCTTGTGTAATGCTGATTGCGGAGTCACCTAGTGCAG” it is 19000 fluorescence intensity (a.u.); for “GGCTACAGATTGGTAGCCAGCTGTAGCACGGACTCCTACACGGAGTCACCTAGTGCAG” it is 4260 fluorescence intensity (a.u.).
For “ACTGATGAAGTTAAGCTAATTAAATCCAGCCCACAAACACCGGAGTCACCTAGTGCAG” the value was 12100 fluorescence intensity (a.u.); for “ACGTGCAATTCACTCATCTTAATTTAAGGTATGTAAACTCCGGAGTCACCTAGTGCAG”, 3920 fluorescence intensity (a.u.).
The figure for “CCCTATCCAGTTAAATTACGTTTACTTCACGTCAAGCGGTCGGAGTCACCTAGTGCAG” is 4370 fluorescence intensity (a.u.).
On to “AGATTTAATTGCAATGAATACAACGGTGTGATCGGATCGTCGGAGTCACCTAGTGCAG”, for which the binding signal is 30900 fluorescence intensity (a.u.).
For “AATATATGTTTAAAATTTTCTATTATATATAATTACAGTACGGAGTCACCTAGTGCAG” the value was 3360 fluorescence intensity (a.u.); for “TAGACAGATTGCGTGTAAATTGTGAGACGAATCTTTTAAGCGGAGTCACCTAGTGCAG”, 23600 fluorescence intensity (a.u.).
The figure for “AGGTGAGATAATCAAATTGTTAGCTACAACTTACTAAGCCCGGAGTCACCTAGTGCAG” is 3560 fluorescence intensity (a.u.).
The figure for “GCGTGTGACTATAATTACGTGGCTTTCCTTCCTGAAGCCGCGGAGTCACCTAGTGCAG” is 6790 fluorescence intensity (a.u.); for “TTTAATTAAGCAAACACACTTGACATACTTTTAAGTATTGCGGAGTCACCTAGTGCAG” it is 12700 fluorescence intensity (a.u.).
